{
  "source": "the supplement of paper PMC10724272",
  "note": "MIC of invasive clinical C. tropicalis isolates, CLSI broth microdilution (fluconazole 0.12-256 mg/L, up to 1,024 for the azole-resistant cluster and its neighbour group; other ranges not stated); higher = less susceptible. Call: susceptible or wild type [S] / resistant or non-wild type [R] by CLSI breakpoints or cut-offs; intermediate and dose-dependent carry no call. '<=' and '>=' at the end values are inferred; the source marks only some of them. Isolates are numbered anew.",
  "data": [
    {"compound": "OC(Cn1cncn1)(Cn1cncn1)c1ccc(F)cc1F [fluconazole]", "assay": "CLSI broth microdilution.", "values": [
      {"test system": "Candida tropicalis isolate 228 (ERG11 copies: 2, Erg11p: no key change)", "MIC": "16 mg/L [R]"},
      {"test system": "Candida tropicalis isolate 85 (ERG11 copies: 2, Erg11p: no key change)", "MIC": "4 µg/mL"},
      {"test system": "Candida tropicalis isolate 273 (ERG11 copies: 2, Erg11p: no key change)", "MIC": "0.5 mg/L [S]"},
      {"test system": "Candida tropicalis isolate 13 (ERG11 copies: 2, Erg11p: no key change)", "MIC": "2 mg/L [S]"},
      {"test system": "Candida tropicalis isolate 244 (ERG11 copies: 2, Erg11p: no key change)", "MIC": "2 mg/L [S]"},
      {"test system": "Candida tropicalis isolate 294 (ERG11 copies: 2, Erg11p: no key change)", "MIC": "1 mg/L [S]"},
      {"test system": "Candida tropicalis isolate 25 (ERG11 copies: 2, Erg11p: no key change)", "MIC": "1 mg/L [S]"},
      {"test system": "Candida tropicalis isolate 71 (ERG11 copies: 2, Erg11p: no key change)", "MIC": "4 µg/mL"},
      {"test system": "Candida tropicalis isolate 232 (ERG11 copies: 2, Erg11p: no key change)", "MIC": "8 mg/L [R]"},
      {"test system": "Candida tropicalis isolate 127 (ERG11 copies: 2, Erg11p: no key change)", "MIC": "2 mg/L [S]"},
      {"test system": "Candida tropicalis isolate 110 (ERG11 copies: 2, Erg11p: no key change)", "MIC": "2 mg/L [S]"},
      {"test system": "Candida tropicalis isolate 442 (ERG11 copies: 2, Erg11p: no key change)", "MIC": "1 mg/L [S]"},
      {"test system": "Candida tropicalis isolate 260 (ERG11 copies: 2, Erg11p: no key change)", "MIC": "1 mg/L [S]"},
      {"test system": "Candida tropicalis isolate 236 (ERG11 copies: 2, Erg11p: no key change)", "MIC": "2 mg/L [S]"},
      {"test system": "Candida tropicalis isolate 77 (ERG11 copies: 7, Erg11p: Y132F, S154F (heterozygous))", "MIC": "512 mg/L [R]"},
      {"test system": "Candida tropicalis isolate 199 (ERG11 copies: 2, Erg11p: Y257H (homozygous))", "MIC": "16 mg/L [R]"},
      {"test system": "Candida tropicalis isolate 406 (ERG11 copies: 2, Erg11p: no key change)", "MIC": "1 mg/L [S]"},
      {"test system": "Candida tropicalis isolate 15 (ERG11 copies: 2, Erg11p: no key change)", "MIC": "2 mg/L [S]"}
    ]},
    {"compound": "CC[C@@H]([C@H](C)O)n1ncn(-c2ccc(N3CCN(c4ccc(OC[C@@H]5CO[C@@](Cn6cncn6)(c6ccc(F)cc6F)C5)cc4)CC3)cc2)c1=O [posaconazole]", "assay": "CLSI broth microdilution.", "values": [
      {"test system": "Candida tropicalis isolate 55 (ERG11 copies: 2, Erg11p: Y132F, S154F (heterozygous))", "MIC": "0.12 mg/L [S]"},
      {"test system": "Candida tropicalis isolate 302 (ERG11 copies: 2, Erg11p: no key change)", "MIC": "0.12 mg/L [S]"},
      {"test system": "Candida tropicalis isolate 12 (ERG11 copies: 2, Erg11p: no key change)", "MIC": "0.12 mg/L [S]"},
      {"test system": "Candida tropicalis isolate 354 (ERG11 copies: 2, Erg11p: Y132F, S154F (homozygous))", "MIC": "0.5 mg/L [R]"},
      {"test system": "Candida tropicalis isolate 447 (ERG11 copies: 2, Erg11p: no key change)", "MIC": "0.12 mg/L [S]"},
      {"test system": "Candida tropicalis isolate 350 (ERG11 copies: 2, Erg11p: no key change)", "MIC": "0.12 mg/L [S]"},
      {"test system": "Candida tropicalis isolate 277 (ERG11 copies: 2, Erg11p: no key change)", "MIC": "0.12 mg/L [S]"},
      {"test system": "Candida tropicalis isolate 117 (ERG11 copies: 8, Erg11p: Y132F, S154F, P397S (heterozygous))", "MIC": "1 mg/L [R]"},
      {"test system": "Candida tropicalis isolate 216 (ERG11 copies: 2, Erg11p: no key change)", "MIC": "0.12 mg/L [S]"},
      {"test system": "Candida tropicalis isolate 306 (ERG11 copies: 2, Erg11p: no key change)", "MIC": "0.12 mg/L [S]"},
      {"test system": "Candida tropicalis isolate 380 (ERG11 copies: 7, Erg11p: Y132F, S154F (heterozygous))", "MIC": "1 mg/L [R]"},
      {"test system": "Candida tropicalis isolate 1 (ERG11 copies: 2, Erg11p: no key change)", "MIC": "0.25 mg/L [S]"},
      {"test system": "Candida tropicalis isolate 369 (ERG11 copies: 2, Erg11p: no key change)", "MIC": "0.25 mg/L [S]"},
      {"test system": "Candida tropicalis isolate 280 (ERG11 copies: 2, Erg11p: no key change)", "MIC": "0.12 mg/L [S]"},
      {"test system": "Candida tropicalis isolate 21 (ERG11 copies: 2, Erg11p: G464S (homozygous))", "MIC": "1 mg/L [R]"},
      {"test system": "Candida tropicalis isolate 308 (ERG11 copies: 2, Erg11p: no key change)", "MIC": "0.25 mg/L [S]"},
      {"test system": "Candida tropicalis isolate 74 (ERG11 copies: 2, Erg11p: no key change)", "MIC": "0.12 mg/L [S]"},
      {"test system": "Candida tropicalis isolate 91 (ERG11 copies: 2, Erg11p: no key change)", "MIC": "0.12 mg/L [S]"},
      {"test system": "Candida tropicalis isolate 228 (ERG11 copies: 2, Erg11p: no key change)", "MIC": "2 mg/L [R]"},
      {"test system": "Candida tropicalis isolate 85 (ERG11 copies: 2, Erg11p: no key change)", "MIC": "0.5 mg/L [R]"},
      {"test system": "Candida tropicalis isolate 273 (ERG11 copies: 2, Erg11p: no key change)", "MIC": "0.06 mg/L [S]"},
      {"test system": "Candida tropicalis isolate 13 (ERG11 copies: 2, Erg11p: no key change)", "MIC": "0.5 mg/L [R]"},
      {"test system": "Candida tropicalis isolate 244 (ERG11 copies: 2, Erg11p: no key change)", "MIC": "0.25 mg/L [S]"},
      {"test system": "Candida tropicalis isolate 294 (ERG11 copies: 2, Erg11p: no key change)", "MIC": "0.25 mg/L [S]"},
      {"test system": "Candida tropicalis isolate 25 (ERG11 copies: 2, Erg11p: no key change)", "MIC": "0.06 mg/L [S]"},
      {"test system": "Candida tropicalis isolate 71 (ERG11 copies: 2, Erg11p: no key change)", "MIC": "0.5 mg/L [R]"},
      {"test system": "Candida tropicalis isolate 232 (ERG11 copies: 2, Erg11p: no key change)", "MIC": "0.25 mg/L [S]"},
      {"test system": "Candida tropicalis isolate 127 (ERG11 copies: 2, Erg11p: no key change)", "MIC": "0.12 mg/L [S]"},
      {"test system": "Candida tropicalis isolate 110 (ERG11 copies: 2, Erg11p: no key change)", "MIC": "0.5 mg/L [R]"},
      {"test system": "Candida tropicalis isolate 442 (ERG11 copies: 2, Erg11p: no key change)", "MIC": "0.06 mg/L [S]"},
      {"test system": "Candida tropicalis isolate 260 (ERG11 copies: 2, Erg11p: no key change)", "MIC": "0.12 mg/L [S]"},
      {"test system": "Candida tropicalis isolate 236 (ERG11 copies: 2, Erg11p: no key change)", "MIC": "0.12 mg/L [S]"},
      {"test system": "Candida tropicalis isolate 77 (ERG11 copies: 7, Erg11p: Y132F, S154F (heterozygous))", "MIC": "1 mg/L [R]"},
      {"test system": "Candida tropicalis isolate 199 (ERG11 copies: 2, Erg11p: Y257H (homozygous))", "MIC": "1 mg/L [R]"},
      {"test system": "Candida tropicalis isolate 406 (ERG11 copies: 2, Erg11p: no key change)", "MIC": "0.12 mg/L [S]"},
      {"test system": "Candida tropicalis isolate 15 (ERG11 copies: 2, Erg11p: no key change)", "MIC": "0.12 mg/L [S]"}
    ]},
    {"compound": "CCCCCOc1ccc(-c2cc(-c3ccc(C(=O)N[C@H]4C[C@@H](O)[C@@H](O)NC(=O)[C@@H]5[C@@H](O)[C@@H](C)CN5C(=O)[C@H]([C@H](O)CC(N)=O)NC(=O)[C@H]([C@H](O)[C@@H](O)c5ccc(O)c(OS(=O)(=O)O)c5)NC(=O)[C@@H]5C[C@@H](O)CN5C(=O)[C@H]([C@@H](C)O)NC4=O)cc3)no2)cc1 [micafungin]", "assay": "CLSI broth microdilution.", "values": [
      {"test system": "Candida tropicalis isolate 55 (ERG11 copies: 2, Erg11p: Y132F, S154F (heterozygous))", "MIC": "0.015 mg/L [S]"},
      {"test system": "Candida tropicalis isolate 302 (ERG11 copies: 2, Erg11p: no key change)", "MIC": "0.03 mg/L [S]"},
      {"test system": "Candida tropicalis isolate 12 (ERG11 copies: 2, Erg11p: no key change)", "MIC": "0.06 mg/L [S]"},
      {"test system": "Candida tropicalis isolate 354 (ERG11 copies: 2, Erg11p: Y132F, S154F (homozygous))", "MIC": "0.03 mg/L [S]"},
      {"test system": "Candida tropicalis isolate 447 (ERG11 copies: 2, Erg11p: no key change)", "MIC": "0.03 mg/L [S]"},
      {"test system": "Candida tropicalis isolate 350 (ERG11 copies: 2, Erg11p: no key change)", "MIC": "0.03 mg/L [S]"},
      {"test system": "Candida tropicalis isolate 277 (ERG11 copies: 2, Erg11p: no key change)", "MIC": "0.06 mg/L [S]"},
      {"test system": "Candida tropicalis isolate 117 (ERG11 copies: 8, Erg11p: Y132F, S154F, P397S (heterozygous))", "MIC": "0.03 mg/L [S]"},
      {"test system": "Candida tropicalis isolate 216 (ERG11 copies: 2, Erg11p: no key change)", "MIC": "0.03 mg/L [S]"},
      {"test system": "Candida tropicalis isolate 306 (ERG11 copies: 2, Erg11p: no key change)", "MIC": "0.03 mg/L [S]"},
      {"test system": "Candida tropicalis isolate 380 (ERG11 copies: 7, Erg11p: Y132F, S154F (heterozygous))", "MIC": "0.03 mg/L [S]"},
      {"test system": "Candida tropicalis isolate 1 (ERG11 copies: 2, Erg11p: no key change)", "MIC": "0.06 mg/L [S]"},
      {"test system": "Candida tropicalis isolate 369 (ERG11 copies: 2, Erg11p: no key change)", "MIC": "0.03 mg/L [S]"},
      {"test system": "Candida tropicalis isolate 280 (ERG11 copies: 2, Erg11p: no key change)", "MIC": "0.015 mg/L [S]"},
      {"test system": "Candida tropicalis isolate 21 (ERG11 copies: 2, Erg11p: G464S (homozygous))", "MIC": "0.03 mg/L [S]"},
      {"test system": "Candida tropicalis isolate 308 (ERG11 copies: 2, Erg11p: no key change)", "MIC": "0.03 mg/L [S]"},
      {"test system": "Candida tropicalis isolate 74 (ERG11 copies: 2, Erg11p: no key change)", "MIC": "0.03 mg/L [S]"},
      {"test system": "Candida tropicalis isolate 91 (ERG11 copies: 2, Erg11p: no key change)", "MIC": "0.06 mg/L [S]"},
      {"test system": "Candida tropicalis isolate 228 (ERG11 copies: 2, Erg11p: no key change)", "MIC": "0.03 mg/L [S]"},
      {"test system": "Candida tropicalis isolate 85 (ERG11 copies: 2, Erg11p: no key change)", "MIC": "0.03 mg/L [S]"},
      {"test system": "Candida tropicalis isolate 273 (ERG11 copies: 2, Erg11p: no key change)", "MIC": "0.03 mg/L [S]"},
      {"test system": "Candida tropicalis isolate 13 (ERG11 copies: 2, Erg11p: no key change)", "MIC": "0.06 mg/L [S]"},
      {"test system": "Candida tropicalis isolate 244 (ERG11 copies: 2, Erg11p: no key change)", "MIC": "0.03 mg/L [S]"},
      {"test system": "Candida tropicalis isolate 294 (ERG11 copies: 2, Erg11p: no key change)", "MIC": "0.03 mg/L [S]"},
      {"test system": "Candida tropicalis isolate 25 (ERG11 copies: 2, Erg11p: no key change)", "MIC": "0.03 mg/L [S]"},
      {"test system": "Candida tropicalis isolate 71 (ERG11 copies: 2, Erg11p: no key change)", "MIC": "0.03 mg/L [S]"},
      {"test system": "Candida tropicalis isolate 232 (ERG11 copies: 2, Erg11p: no key change)", "MIC": "0.03 mg/L [S]"}
    ]}
  ]
}
